# In all, about 110,000 compounds were measured (“z-score”: median about -0.1, highest 2% from about 2 on). The list shows a part of the results. Calls of active or inactive are those of the source.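 The calls were made as follows: active = z-score in the third read window above 3 or below -3; inactive = the rest.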
# Biological target: Metabotropic glutamate receptor 8 (Rattus norvegicus) (UniProt P70579)
# Assay: mGluR8 Gi/Go-coupled signaling modulation – cell-based, rat, thallium flux, HTS, primary screen (AID 488969)
# Conditions: HEK293 rat mGluR8, GIRK (G protein-gated inwardly rectifying potassium channel) thallium flux, FluoZin2; at 10 µM; stronger effect = higher value; submaximal glutamate (EC20) added with thallium
# Chain of UniProt P70579 (P70579 whole entry, looked up): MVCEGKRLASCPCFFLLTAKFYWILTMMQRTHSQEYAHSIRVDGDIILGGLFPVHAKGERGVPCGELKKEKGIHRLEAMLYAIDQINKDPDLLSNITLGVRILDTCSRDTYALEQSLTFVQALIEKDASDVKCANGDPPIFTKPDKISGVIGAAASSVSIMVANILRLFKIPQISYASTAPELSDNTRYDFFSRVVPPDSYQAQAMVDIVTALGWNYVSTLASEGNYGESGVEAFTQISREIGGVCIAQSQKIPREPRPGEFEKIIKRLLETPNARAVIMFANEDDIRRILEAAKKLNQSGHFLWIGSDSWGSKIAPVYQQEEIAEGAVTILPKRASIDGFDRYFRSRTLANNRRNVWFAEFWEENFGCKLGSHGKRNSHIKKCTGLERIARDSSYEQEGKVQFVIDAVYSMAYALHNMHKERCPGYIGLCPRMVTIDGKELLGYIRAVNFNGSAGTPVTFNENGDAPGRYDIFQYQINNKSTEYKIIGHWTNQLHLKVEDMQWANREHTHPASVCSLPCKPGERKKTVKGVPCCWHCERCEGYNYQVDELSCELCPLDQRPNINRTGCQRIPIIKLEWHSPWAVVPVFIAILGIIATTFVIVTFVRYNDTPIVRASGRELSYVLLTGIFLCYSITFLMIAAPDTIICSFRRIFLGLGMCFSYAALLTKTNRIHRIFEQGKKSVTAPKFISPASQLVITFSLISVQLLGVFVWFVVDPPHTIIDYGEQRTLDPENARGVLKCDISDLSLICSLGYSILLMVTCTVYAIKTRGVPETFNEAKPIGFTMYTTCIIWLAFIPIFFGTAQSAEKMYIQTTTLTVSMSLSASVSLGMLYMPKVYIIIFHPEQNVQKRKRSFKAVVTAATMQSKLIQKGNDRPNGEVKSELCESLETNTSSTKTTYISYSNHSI
row,Structure (SMILES),z-score
1,COc1ccc(NC(=O)c2cc3c(=O)n(C)c4ccccc4c3n2C)cc1OC,-1.38
2,Cc1ccc(-c2cn(-c3ccc(SC(F)F)cc3)c3[n+]2CCC3)cc1,-0.0421
3,CCCCN1CC(O)=C(c2nc3ccccc3[nH]2)C1=N,-0.0274
4,CCc1nnc(NC(=O)c2ccc(Cl)c(S(=O)(=O)N3CCc4ccccc4C3)c2)s1,-0.209
5,N#Cc1ccc(Oc2nc(C(N)=O)cc(-c3ccccc3)n2)cc1,-0.0624
6,COc1ccc(-c2n[nH]c(=S)n2/N=C/C=C/c2ccccc2OC)cc1,0.578
7,Cn1c(=O)c2c(nc(SCc3ccccc3)n2Cc2ccc(Cl)cc2)n(C)c1=O,-0.333
8,Cc1c(C(=O)N2CCOCC2)[nH]c2ccc(OCc3ccccc3)cc12,-0.364
9,CC1CCN(CCCNC(=O)c2coc3nc4ccccc4nc23)CC1,0.221
10,CC(=O)C1=C(O)C(=O)N(CCc2c[nH]c3ccccc23)C1c1ccc(O)cc1 (centres undefined),0.33
11,Cc1cccc(NC(=O)CSc2nc(C)c(CC(=O)c3ccc(Br)cc3)c(C)c2C#N)c1C,-0.015
12,CCc1nnc(NC(=O)CSc2nc(-c3ccccc3)cc(-c3ccc(F)cc3)c2C#N)s1,-0.163
13,CCN1CCc2c(C#N)c(N3CCOCC3)nc(N3CCOCC3)c2C1,1.35
14,Cc1oc(-c2cccc(Cl)c2)nc1CN1CCCC(C(=O)NC(C)c2ccc3c(c2)OCCO3)C1 (centres undefined),0.226
15,Cc1ccc(C)c(NC(=O)/C(C#N)=C/c2cn(CC(=O)NCc3ccco3)c3ccccc23)c1,-0.228
16,COc1ccccc1CNC(=O)C1CC(=O)N(c2ccc(C)c(C)c2)C1 (centres undefined),-0.345
17,CC1=CC(C)(C)N2C(=O)C3(SCC(=O)N3c3ccc(O)cc3)c3cc(C)cc1c32 (centres undefined),0.599
18,COc1ccc(C(=O)Nc2ccc(Oc3ncnc4sc(-c5ccccc5)cc34)cc2)cc1OC,active: 4.83
19,CC1(C)CC2(CCO1)OC(=O)CC2C(=O)NCc1ccccc1 (centres undefined),-0.908
20,COc1ccc(C(=O)NC(=S)NNC(=O)c2ccc(NC(=O)C(C)C)cc2)cc1,0.0333
21,Clc1ccc(CSc2nnnn2-c2ccc3c(c2)OCO3)c(Cl)c1,-0.127
22,O=c1c2ccccc2sn1-c1cc(S(=O)(=O)N2CCOCC2)ccc1N1CCOCC1,-0.736
23,COc1ccc(-c2cn3ccc4ccccc4c3n2)cc1,-0.114
24,CCOC(=O)CCc1c(C)c2ccc(OC(C)C(=O)OCC)c(C)c2oc1=O (centres undefined),-0.888
25,O=C(Cc1ccc(Cl)cc1)Nc1nc2ccccc2[nH]1,0.0357
26,CCc1ccc(C(=O)C(C)OC(=O)C2COc3ccccc3O2)cc1 (centres undefined),-0.623
27,Cc1cnc(C(=O)OCC(=O)NC(=O)NC(C)C)cn1,0.585

row,Structure (SMILES),z-score
1,CC(C)Nc1nc(Cl)nc(NNC(=O)C(C)Oc2ccccc2)n1 (centres undefined),-0.057
2,CC(C)c1ccc(NC(=O)NC2CCCCC2)cc1,0.432
3,Cc1c(C#N)c2ccccc2n1CC(=O)N1CCCc2ccccc21,-0.568
4,CCOC(=O)C(CC)Sc1ncnc2c1nnn2-c1ccc(F)cc1 (centres undefined),-0.251
5,CCn1c2ccccc2c2cc(NC(=O)COc3ccccc3OC)ccc21,0.73
6,Cc1cccc(-n2nc(C(=O)c3ccco3)cc(-c3nc4ccccc4[nH]3)c2=N)c1,-0.188
7,O=C(NCc1cccnc1)C(=O)NCC(c1ccco1)N1CCN(c2ccc(F)cc2)CC1 (centres undefined),-0.331
8,Cn1nc(C(=O)N2CCCC2)c2ccccc2c1=O,1.07
9,CCOc1nnc(C)c2c(C)n(-c3ccc(Cl)cc3)nc12,-0.615
10,O=C1S/C(=C\c2ccccc2)C(=O)N1CC(O)Cn1c2ccccc2c2ccccc21 (centres undefined),-0.342
11,CC(C)(C)c1nnc(NC(=O)C2CCN(c3ncccn3)CC2)s1,0.166
12,O=C(NCc1ccco1)c1csc(Nc2ccccc2Cl)n1,-1.61
13,CCOC(=O)c1sc(NC(=O)CSc2nc(C)cc(C(F)(F)F)n2)c(C#N)c1C,1.56
14,CC(C)CCNc1nc2c(c(=O)n(Cc3cccc(F)c3)c(=O)n2C)n1C,-0.671
15,Cc1ccccc1N(C(=O)Cc1cccs1)C(C(=O)NC1CCCCC1)c1cn(C)nc1C (centres undefined),-0.194
16,CN(C)S(=O)(=O)N1CCC(CCCC2CCN(S(=O)(=O)N(C)C)CC2)CC1,-0.92
17,CCCn1c(C)cc(C(=O)COC(=O)c2ccc[nH]c2=O)c1C,0.545
18,N#Cc1cn(CC(=O)N2CCCC2)c2ccccc12,-0.707
19,Cc1csc(NC(=O)NC2(C(F)(F)F)Oc3ccccc3O2)n1,-0.174
20,COC(=O)c1ccc(CSc2nnc(NC(C)C)s2)cc1,-0.419
21,COc1ccc(C(=O)NCC(=O)OCc2cccc(Br)c2)cc1,-0.0855
22,Cc1nnc(NC(=O)CSc2nnc(Cc3cccn3C)n2C)s1,-1.68
23,CCOc1ccc(OCCSc2nc3ccccc3o2)cc1,0.107
24,COc1ccc(OC(=O)c2cn(C)nc2C(F)(F)F)cc1,0.00378
25,CCCCOc1ccc(C(=O)Nc2ccc(SC(F)F)cc2)cc1OC,-0.296
26,Cc1cc(C)n2nc(-c3cnn(C)c3C(F)(F)F)cc2n1,0.0767
27,CC(=O)c1ccc(N2CCN(C(=O)c3cc(C)on3)CC2)cc1,0.13
